Results on 42 compounds are retold here after ChEMBL document CHEMBL4888484, “Replenishing the malaria drug discovery pipeline: Screening and hit evaluation of the MMV Hit Generation Library 1 (HGL1) against asexual blood stage Plasmodium falciparum ,using a nano luciferase reporter read-out” (2022).

A word on the % Inhibition: it is the relative decrease from the control value, in per cent.

SMILES strings stand for the structures. In all, about 150,000 compounds went through this assay and about 540 (0.36%) showed an effect of 50% or more. The list shows a part of the results.

The test system of this experiment is Plasmodium falciparum. Nature of the experiment: Primary screen in NF54 nanoGlo assay, in single point, at 2uM, 72h; a lower Z score goes with more inhibition. The format is functional, Erythrocyte. The settings on record: timepoint 72 hour.
Consider `Cc1cc(CC(=O)N[C@H]2CCCN(Cc3cccc(O)c3)C2)on1`, for which the “% Inhibition” value was determined as 5% and the Z score is on record as -1.09.

For the compound `Cc1noc(C2CCN(C(=O)c3cnc4sc(C)cn4c3=O)CC2)n1`, the “% Inhibition” value is on record as -8% and the Z score was determined as 1.07.

Turning to `CCC[C@H](C)N1CC2(CCN(C(=O)c3cccc4nccnc34)CC2)OC1=O`, the “% Inhibition” value was -1% and the Z score was found to be 0.25.

As to `CC(Nc1ccncc1NC(=O)c1cccc(C#N)c1)C1CCCO1` (centres undefined), the “% Inhibition” value was -9% and the Z score came to 1.84.

For the compound `C[C@H](NC1(c2ccccc2)CCCC1)c1cncc(F)c1`, the “% Inhibition” value is listed as -6% and the Z score is given as 1.17.

Regarding `COc1ccc(-c2noc(-c3ccc(N(C)Cc4cnn(C)c4)nc3)n2)cc1`, the “% Inhibition” value is listed as -6% and the Z score was found to be 0.73.

For `CC(C)Cc1cc(CN(C)[C@@H](CO)C(C)C)n[nH]1`, the “% Inhibition” value is -6% and the Z score stood at 1.06.

As for `O=C1CC[C@@H](C(=O)N2CCCn3cc(-c4ccccc4)nc32)N1`, the “% Inhibition” value is recorded as -9% and the Z score is reported as 1.5.

Consider `Cc1cc(C(=O)NCc2ccncc2)c(=O)n(C)c1C`, for which the “% Inhibition” value was -11% and the Z score is recorded as 1.52.

Consider `CC(=O)Nc1ccc(NC(=O)c2cc3c(s2)CCCCCC3)cc1`, for which the “% Inhibition” value was -3% and the Z score is on record as 0.28.

For `CN(CC(=O)N(C)C(C)(C)C#N)c1c(F)cccc1F`, the “% Inhibition” value is recorded as -3% and the Z score is given as 0.52.

Regarding `CCCn1nccc1-c1ccc(N2CCN(C)CC2)nn1`, the “% Inhibition” value was -7% and the Z score was 1.11.

On to `CC1CC(c2ccccc2)CCN1C(=O)c1cc(C2CC2)on1` (centres undefined), for which the “% Inhibition” value turned out to be 36% and the Z score is listed as -5.25.

For `Cc1cnc(C)c(N2CCC(c3nccn3Cc3cccnc3)CC2)n1`, the “% Inhibition” value was 0% and the Z score is recorded as 0.06.

For `CNC(=O)[C@@H]1CCCN1C(=O)Nc1csc(-c2ccccn2)n1`, the “% Inhibition” value came to 1% and the Z score is -0.22.

Turning to `O=C(CNC(=O)NCC1CC12CCc1ccccc12)NCC1CC1` (centres undefined), the “% Inhibition” value was 8% and the Z score was -1.1.

For `CN(C)c1nccc(N2CCC[C@H](c3nncn3C)C2)n1`, the “% Inhibition” value is -2% and the Z score amounted to 0.37.

For `O=C(N[C@H]1CCOC[C@@H]1O)[C@H]1C[C@@H]1c1ccc(OC(F)F)cc1`, the “% Inhibition” value is -9% and the Z score was 1.22.

Regarding `O=C(Cc1cccs1)Nc1ccc(N2CCN(c3ccccc3F)CC2)c(S(=O)(=O)NCc2ccc3c(c2)OCO3)c1`, the “% Inhibition” value was -1% and the Z score worked out at 0.14.

Take `COC(C)(C)C(=O)Nc1ccc(F)cc1C`: the “% Inhibition” value was -11% and the Z score was 1.77.

Take `CCOC(=O)c1nsc(Cl)c1Cl`: the “% Inhibition” value came to 4% and the Z score is reported as -0.44.

For `Nc1ccnc(N2CCC[C@@](CO)(CCc3ccccc3)C2)n1`, the “% Inhibition” value was -6% and the Z score was found to be 0.91.

`C1=CCC2CN(c3ncnc4[nH]ncc34)CC2C1` (centres undefined): the “% Inhibition” value worked out at 27% and the Z score was -2.26.

With `CN(C(=O)N1C[C@@H]2CC[C@H]1CN(S(=O)(=O)N(C)C)C2)c1ccccc1`, the “% Inhibition” value is -15% and the Z score turned out to be 2.

`CC(C)Oc1ccc(F)cc1NC(=O)CC(C)(C)C(=O)O`: the “% Inhibition” value is recorded as -12% and the Z score is 2.25.

Turning to `Cc1c(C(=O)N2CCn3ccnc3[C@@H]2C(C)C)cc(-c2ccccc2)n1C`, the “% Inhibition” value is reported as 1% and the Z score is -0.13.

For `N#CC1CCN(CCc2ccc3c(c2)CCO3)CC1`, the “% Inhibition” value is listed as -4% and the Z score amounted to 0.64.

With `O=C(CCC(=O)Nc1ccc(S(=O)(=O)N2CCc3ccccc32)cc1)Nc1ccc(S(=O)(=O)N2CCc3ccccc32)cc1`, the “% Inhibition” value is recorded as -5% and the Z score was found to be 0.69.

On to `COCCN(CCOC)C(=O)c1cc(F)ccc1F`, for which the “% Inhibition” value was 9% and the Z score is -0.92.

Consider `Cc1ccc(-n2c(C)c(C)c3c(=O)n(CC(=O)NC(C)C)cnc32)cc1`, for which the “% Inhibition” value is -9% and the Z score is listed as 0.91.

For the compound `CCOc1ccc(-c2nc(N(C(=O)C3CCCCC3)c3ccccc3OC)sc2C)cc1`, the “% Inhibition” value is reported as -5% and the Z score is reported as 0.63.

In the case of `CCn1ccc(C(=O)NCC(=O)N2CCCCCCNC(=O)C[C@H]2c2ccccc2)n1`, the “% Inhibition” value came out at 2% and the Z score is -0.3.

`COc1cccc(-c2nsc(C(=O)NCc3cccnc3)c2N)c1`: the “% Inhibition” value was 35% and the Z score is given as -0.67.

Regarding `C[C@H](OCC1CC1)C(=O)Nc1ccncc1`, the “% Inhibition” value is recorded as -8% and the Z score is recorded as 1.14.

`c1ccc(-c2cc3c(N4CCC4)ncnc3s2)cc1`: the “% Inhibition” value is recorded as 31% and the Z score is -4.11.

As for `C[C@H](NC(=O)Nc1ccc(S(=O)(=O)N2CCCCC2)cn1)c1nccn1C`, the “% Inhibition” value was -9% and the Z score amounted to 1.17.

For `C=CCNC(=O)c1cccc(S(=O)(=O)N[C@@H]2C[C@@H](CO)N(C)C2)c1`, the “% Inhibition” value was 8% and the Z score is given as -1.17.

On to `CN(Cc1ccccc1)Cc1cn([C@H]2CO[C@H]3[C@@H]2OC[C@@H]3NC(=O)C2CCCCC2)nn1`, for which the “% Inhibition” value is on record as -6% and the Z score is 0.93.

As for `Cc1nc(C(=O)N2CCc3[nH]c4c(Cl)cccc4c3C2)c(C)o1`, the “% Inhibition” value is 3% and the Z score is -0.52.

`CC(C)C12OC3C(O)C4CC3C1C4C(=O)N2C1CCCCC1` (centres undefined): the “% Inhibition” value is listed as -3% and the Z score worked out at 0.48.

Turning to `CCCN1CCc2c(c(CN(C(=O)C3CCCCC3)C(C)C)nn2-c2ccc(C)cc2)C1`, the “% Inhibition” value is on record as -5% and the Z score worked out at 0.53.

Consider `Cc1ncsc1CCC(=O)N[C@H]1CC[C@H]1NC1CCCC1`, for which the “% Inhibition” value is -2% and the Z score is on record as 0.32.
